Assay results from PMC4336329 (PLoS ONE, 2015).
Out of some 310,000 compounds screened, about 14,000 (4.5%) showed an effect of 50% or more. Effects have a minus sign here. Some of the results follow.

Biological target: human ether-à-go-go-related gene (hERG) potassium channel (human, UniProt Q12809)
Assay: primary screen, population patch clamp on CHO cells stably expressing hERG
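Further: peak tail current of the secondary pulse compared with the same well before compound.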

Sequence of human ether-à-go-go-related gene (hERG) potassium channel (Q12809 whole entry, looked up): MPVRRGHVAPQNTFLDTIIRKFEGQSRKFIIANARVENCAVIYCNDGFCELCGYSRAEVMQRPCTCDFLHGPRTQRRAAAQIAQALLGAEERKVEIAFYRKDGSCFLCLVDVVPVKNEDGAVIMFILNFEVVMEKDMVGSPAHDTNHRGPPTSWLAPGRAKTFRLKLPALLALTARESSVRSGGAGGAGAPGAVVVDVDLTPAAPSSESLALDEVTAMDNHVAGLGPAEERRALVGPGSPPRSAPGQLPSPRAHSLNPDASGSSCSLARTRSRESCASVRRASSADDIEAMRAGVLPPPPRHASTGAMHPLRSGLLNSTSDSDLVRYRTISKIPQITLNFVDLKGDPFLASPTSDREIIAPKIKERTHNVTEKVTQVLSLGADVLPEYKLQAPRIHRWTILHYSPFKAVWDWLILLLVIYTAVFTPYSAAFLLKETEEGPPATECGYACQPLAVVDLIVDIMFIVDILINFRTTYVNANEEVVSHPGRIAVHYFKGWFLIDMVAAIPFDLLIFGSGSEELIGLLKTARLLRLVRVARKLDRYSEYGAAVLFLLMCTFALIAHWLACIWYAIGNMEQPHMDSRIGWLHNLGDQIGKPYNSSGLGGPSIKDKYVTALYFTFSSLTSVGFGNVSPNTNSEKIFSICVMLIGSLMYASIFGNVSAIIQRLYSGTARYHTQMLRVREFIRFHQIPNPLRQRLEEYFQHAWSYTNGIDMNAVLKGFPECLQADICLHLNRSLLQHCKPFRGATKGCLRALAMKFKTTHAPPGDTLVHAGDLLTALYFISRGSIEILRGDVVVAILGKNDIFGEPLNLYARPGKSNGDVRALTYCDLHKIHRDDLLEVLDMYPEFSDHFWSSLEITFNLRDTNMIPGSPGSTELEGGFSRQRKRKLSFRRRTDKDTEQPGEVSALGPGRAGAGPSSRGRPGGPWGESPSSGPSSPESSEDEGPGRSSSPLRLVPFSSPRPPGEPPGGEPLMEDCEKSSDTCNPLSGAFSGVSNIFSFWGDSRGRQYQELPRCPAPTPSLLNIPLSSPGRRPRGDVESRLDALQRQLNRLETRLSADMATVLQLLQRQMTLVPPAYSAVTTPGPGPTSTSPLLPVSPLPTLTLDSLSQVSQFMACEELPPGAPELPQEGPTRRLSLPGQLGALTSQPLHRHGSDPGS

First: CCCNc1nc2ccccc2c(=O)[nH]1
Second: CCOC(=O)C1(CC)CC(CSc2nc3ccccc3[nH]2)OC1=O.Cl (stereo not drawn)
The “hERG current change (%, negative = inhibition) at 10uM” value of the first is higher: 37.1% for the first, -2.61% for the second.

Compared with `NC(=O)NC(Cc1ccccc1)C(=O)NCC1(N2CCCCC2)CCCCC1` (stereo not drawn), `N#CC1(NC(=O)COC(=O)Cc2n[nH]c(=O)c3ccccc23)CCCCC1` is lower in “hERG current change (%, negative = inhibition) at 10uM” value: 10.9% for the first, 6.73% for the second.

Going from `C/C(=N/NC(=O)CNC(=O)c1cccs1)c1ccco1` to `O=C(Nc1cccc(C(F)(F)F)c1)c1ccco1`, the “hERG current change (%, negative = inhibition) at 10uM” value falls from 11.7% to -16.2%.

First: Cc1ccc2c(c1)C1CN(C)CCC1N2C(=O)Cn1nnc(-c2ccccc2F)n1 (stereo not drawn)
Second: Cc1cc(NC(=O)Cn2nnc(-c3ccccc3N)n2)no1
The “hERG current change (%, negative = inhibition) at 10uM” value of the first is lower: -60.1% for the first, 11.8% for the second.

Compared with `CCCc1cc(=O)[nH]c(SCC(=O)c2cc(C)n(CCC)c2C)n1`, `Cc1nnc(SCC(=O)c2cc(C)n(-c3c(C)n(C)n(-c4ccccc4)c3=O)c2C)s1` is lower in “hERG current change (%, negative = inhibition) at 10uM” value: 7.5% for the first, 1.03% for the second.

Compared with `COC(=O)NNC(=O)c1cccc(C)c1`, `Cc1ccc(NC(=O)c2cccc(Cl)c2)nc1` is lower in “hERG current change (%, negative = inhibition) at 10uM” value: -1.42% for the first, -2.89% for the second.

First: Cc1ccc2[nH]c(=O)c3cc(C(=O)NC(C)C)sc3c2c1
Second: Cc1sc2nc(SCC(=O)NCc3ccco3)[nH]c(=O)c2c1C
The “hERG current change (%, negative = inhibition) at 10uM” value of the first is lower: 9.76% for the first, 10.5% for the second.

Compared with `CCCCCCCCCCCCCCCC(=O)OC(CC(=O)O)C[N+](C)(C)C.[Cl-]` (stereo not drawn), `CC1NC(=O)NC1CCCCCC(=O)Nc1ccc(F)c(Cl)c1` (stereo not drawn) is lower in “hERG current change (%, negative = inhibition) at 10uM” value: -14% for the first, -27.2% for the second.

First: O=C(CCOc1ccccc1)Nc1ccccc1
Second: O=C(COC(=O)c1cccc2ccccc12)Nc1cccnc1Cl
The “hERG current change (%, negative = inhibition) at 10uM” value of the first is higher: 12.1% for the first, 0.703% for the second.

Going from `NC(=O)NC(=O)COC(=O)/C=C/c1cccc(Br)c1` to `COc1ccc(CCNC(=O)COC(=O)/C=C/c2ccc(OCC#N)c(OC)c2)cc1OC`, the “hERG current change (%, negative = inhibition) at 10uM” value falls from 8% to -17.1%.

Compared with `O=CN1CCN(C(=O)CN2C(=O)c3ccccc3C2=O)CC1`, `O=C(CN1C(=O)c2ccccc2S1(=O)=O)Nc1ncccn1` is lower in “hERG current change (%, negative = inhibition) at 10uM” value: 10.5% for the first, 5.59% for the second.

Compared with `O=C(O)c1cccc(N2C(=O)C3C4C=CC(C4=C(c4ccccc4)c4ccccc4)C3C2=O)c1` (stereo not drawn), `[Cl-].c1ccc(Cn2c[n+](Cc3ccccc3)c3ccccc32)cc1` is lower in “hERG current change (%, negative = inhibition) at 10uM” value: 34.7% for the first, -9.12% for the second.

Going from `CCO[C@H]1OC(C(=O)NCc2ccccc2)=C[C@@H](c2coc3ccccc3c2=O)[C@@H]1CCCO` to `CCOc1ccc2[nH]cc(C(=O)NCc3ccc(F)cc3)c(=O)c2c1`, the “hERG current change (%, negative = inhibition) at 10uM” value rises from -38.5% to 16.8%.

Going from `CCOc1ccc(NC(=O)N2CCN(S(C)(=O)=O)CC2)cc1` to `CCOc1ccc(N/C(C)=C/C(=O)c2ccc(C)o2)cc1`, the “hERG current change (%, negative = inhibition) at 10uM” value falls from -2.92% to -42.7%.

Going from `CNC(=O)c1cc(C(=O)c2c(Cl)cccc2Cl)c[nH]1` to `CC1Cc2ccccc2N1NC(=O)c1ccc(Cl)c(S(N)(=O)=O)c1` (stereo not drawn), the “hERG current change (%, negative = inhibition) at 10uM” value rises from -5.5% to 8.16%.

Going from `NC1=NC[C@H](Cc2ccc(O)cc2)N1CCC12CC3CC(CC(C3)C1)C2` to `O=C(NCc1cccnc1)C12CC3CC(CC(C3)C1)C2`, the “hERG current change (%, negative = inhibition) at 10uM” value rises from -3.6% to -2.26%.

Going from `O=c1c(Cc2ccc(Cl)cc2Cl)c(O)ccn1Cc1ccc(Cl)cc1` to `CCc1ccc(NC(=O)c2cccc(C(=O)Nc3ccc(CC)cc3)n2)cc1`, the “hERG current change (%, negative = inhibition) at 10uM” value rises from -4.83% to 5.34%.

Compared with `O=C(CSc1ccc2nnc(-c3ccccn3)n2n1)Nc1ccc2c(c1)OCCO2`, `Cc1ccc(NC(=O)Cc2nc(CSc3nnc(-c4ccc5c(c4)OCO5)o3)cs2)cc1` is higher in “hERG current change (%, negative = inhibition) at 10uM” value: -40.6% for the first, -6.08% for the second.

First: CC(Cc1ccsc1)NCc1cn[nH]c1-c1ccc(F)cc1F (stereo not drawn)
Second: CCc1cc(=O)oc2cc3occ(-c4ccc(OC)c(F)c4)c3cc12
The “hERG current change (%, negative = inhibition) at 10uM” value of the first is lower: -66.3% for the first, 2% for the second.

Going from `COc1cc(S(=O)(=O)NCc2ccncc2)c(OC)cc1C` to `COc1cc(/C=C2\OC(=O)c3c(OC)cccc32)ccc1O`, the “hERG current change (%, negative = inhibition) at 10uM” value rises from -4.37% to 15.6%.

Going from `COC(=O)c1ccc(-c2noc(CN(Cc3nccn3C)C(C)C)n2)cc1` to `COc1ccc(-c2noc(CCC(=O)Nc3cccnc3)n2)cc1`, the “hERG current change (%, negative = inhibition) at 10uM” value rises from -37% to 14.2%.

Going from `Cc1nn(C)cc1S(=O)(=O)Nc1ccc(C(F)(F)F)cc1` to `CC(=O)Nc1ccc(NC(=O)c2ccc(NS(=O)(=O)c3cc(C(C)(C)C)ccc3C)cc2)cc1`, the “hERG current change (%, negative = inhibition) at 10uM” value rises from 10.1% to 12.1%.

Going from `Cc1[nH][nH]c(=O)c1C(c1ccc(F)cc1)c1c(C)[nH][nH]c1=O` to `Cc1nn(Cc2ccccc2Cl)c(C)c1C(=O)N(C)CC(=O)Nc1cccc(F)c1`, the “hERG current change (%, negative = inhibition) at 10uM” value falls from 13.2% to -22%.

Compared with `COC(=O)CSc1ncnc2c1cnn2Cc1ccccc1`, `COc1ccccc1NC(=O)c1ccc(-n2cccn2)nc1` is higher in “hERG current change (%, negative = inhibition) at 10uM” value: 0.137% for the first, 3.91% for the second.

Going from `Cc1cc(C2CCCCC2)n(O)c(=O)c1.NCCO` to `CC1(C(=O)NC2CCCCC2)CCC(=O)N1Cc1cccs1` (stereo not drawn), the “hERG current change (%, negative = inhibition) at 10uM” value falls from 7.99% to -0.227%.

Compared with `S=C(Nc1ccccc1)N1N=C(c2cccs2)CC1c1cccs1` (stereo not drawn), `O=C(NNS(=O)(=O)c1ccccc1)c1sccc1-n1cccc1` is lower in “hERG current change (%, negative = inhibition) at 10uM” value: 25.4% for the first, -0.398% for the second.

Compared with `O=C(NC1CCN(S(=O)(=O)c2ccc(Cl)cc2)CC1)c1cccnc1`, `Cn1c(CCN2CCN(c3ccccn3)CC2)nc2cc(NS(=O)(=O)c3ccc(Cl)cc3)ccc21` is lower in “hERG current change (%, negative = inhibition) at 10uM” value: 0.584% for the first, -84.3% for the second.

First: CCOc1ccc(NC(=O)CN(c2ccc([N+](=O)[O-])cc2)S(=O)(=O)c2ccccc2)cc1
Second: COC(C(=O)Nc1ccc(S(=O)(=O)Nc2ccc(C)c(C)c2)cc1)c1ccccc1 (stereo not drawn)
The “hERG current change (%, negative = inhibition) at 10uM” value of the first is lower: 0.773% for the first, 15.3% for the second.

Going from `O=C1NC(c2ccncc2)Nc2sc3c(c21)CCCC3` (stereo not drawn) to `Nc1nnc(C2CCCC2)s1`, the “hERG current change (%, negative = inhibition) at 10uM” value falls from 6.31% to 4.17%.

Compared with `CCCC(C(=O)O)N1C(=O)/C(=C/c2cccn2C)SC1=S` (stereo not drawn), `CC(=O)c1c(C)n(CCO)c2ccc(O)cc12` is lower in “hERG current change (%, negative = inhibition) at 10uM” value: 24.8% for the first, -6.47% for the second.

Going from `NS(=O)(=O)c1ccc(Cc2ncc(C(F)(F)F)cc2Cl)s1` to `O=C(N/C=N/O)C1=NOC(CNc2ncc(C(F)(F)F)cc2Cl)C1` (stereo not drawn), the “hERG current change (%, negative = inhibition) at 10uM” value falls from 11.2% to -18.7%.

First: COc1cccc(CN2CCN(Cc3ccc4c(c3)OCCO4)CC2CCO)c1 (stereo not drawn)
Second: COc1ccc(C2CC(=O)C(C=NCCN3CCN(C(C)=O)CC3)=C(O)C2)cc1 (stereo not drawn)
The “hERG current change (%, negative = inhibition) at 10uM” value of the first is lower: -7.1% for the first, -1.68% for the second.

Compared with `CCc1ccc(C(C)NC(=O)/C=C/c2ccc(Br)cc2)cc1` (stereo not drawn), `CC(=O)c1ccc(OCc2cc(C(=O)NC(C)c3cnn(C)c3)no2)cc1` (stereo not drawn) is higher in “hERG current change (%, negative = inhibition) at 10uM” value: -22.4% for the first, -0.438% for the second.

Going from `Cc1ccc(-n2nc3ccc(NC(=O)c4ccc5c(c4)OCO5)cc3n2)cc1` to `O=C(Nc1cccnc1)Nc1ccc2c(c1)OCO2`, the “hERG current change (%, negative = inhibition) at 10uM” value falls from 7.8% to -20.3%.

Compared with `Cc1cc(NC(=O)c2ccco2)no1`, `Cc1occc1C(=O)O/N=C(\N)c1ccccc1` is lower in “hERG current change (%, negative = inhibition) at 10uM” value: 14.9% for the first, 10.2% for the second.

First: CCOC(=O)CC1(NC(=O)C2CCC(=O)N(CCc3ccc(OC)cc3)C2)CCCCC1 (stereo not drawn)
Second: Cc1cccc(C)c1NC(=O)COC(=O)COc1ccc2c(C)cc(=O)oc2c1
The “hERG current change (%, negative = inhibition) at 10uM” value of the first is lower: -17% for the first, 6.65% for the second.

Compared with `Cc1cc(C)n(-c2ncc3c(n2)N(CCO)CCOC3=O)n1`, `Cc1cc(C(=O)CSc2nnnn2-c2ccc(Cl)cc2)c(C)n1CC1CCCO1` (stereo not drawn) is lower in “hERG current change (%, negative = inhibition) at 10uM” value: 15.2% for the first, 0.173% for the second.

First: CC(C)(C)OC(=O)N1CCNc2ccccc2C1
Second: CCC(C)(C(=O)NC1CCCC1)N(C)C(=O)c1ccccn1 (stereo not drawn)
The “hERG current change (%, negative = inhibition) at 10uM” value of the first is lower: 0.368% for the first, 1.46% for the second.

Compared with `O=C(NCCCCNC(=O)C1CCCC1)C1CCCC1`, `CCCN1C2CCCC1CC(NC(=S)NCCCOCC)C2` (stereo not drawn) is higher in “hERG current change (%, negative = inhibition) at 10uM” value: -15.8% for the first, 3.1% for the second.

First: COC(=O)c1cc(C#N)c(Oc2cccc(C)c2C)nc1C
Second: Cc1cc(Nc2ccc([N+](=O)[O-])cc2)c2ccccc2n1
The “hERG current change (%, negative = inhibition) at 10uM” value of the first is higher: 18.5% for the first, -20% for the second.

Going from `Cc1ccccc1-c1cc(C(=O)NCc2cccs2)n(CC2CC(c3cccnc3)=NO2)n1` (stereo not drawn) to `Cc1ccc2[nH]c(=O)c(CN(Cc3cccs3)Cc3nnnn3Cc3ccccc3)cc2c1`, the “hERG current change (%, negative = inhibition) at 10uM” value rises from -26.2% to -6.86%.

Going from `CC1(C)CC(=O)c2cc(C(=O)NCc3ccco3)c(=O)n(-c3ccccc3)c2C1` to `Cc1occc1-c1nnc(SCC(=O)Nc2nccs2)n1Cc1ccco1`, the “hERG current change (%, negative = inhibition) at 10uM” value falls from -19.7% to -75.4%.

Compared with `Cc1cc(C)c2cc(C(=O)N(C)C3CCN(C)CC3)[nH]c2c1`, `O=C(NC1CCCCC1)C(c1ccc(O)cc1)N(C(=O)c1cnccn1)c1cccc(F)c1` (stereo not drawn) is lower in “hERG current change (%, negative = inhibition) at 10uM” value: 5.88% for the first, 0.986% for the second.

Compared with `CCN(CC)S(=O)(=O)c1ccc(N2CCN(CCO)CC2)nc1`, `C=CCNC(=S)N1CCN(CCN=CC2=C(O)CC(c3cccs3)CC2=O)CC1` (stereo not drawn) is lower in “hERG current change (%, negative = inhibition) at 10uM” value: -3.97% for the first, -49.1% for the second.

Going from `O=C(c1ccc(-c2nnc(Nc3ccccc3)c3ccccc23)cc1)N1C[C@H]2C[C@H](C1)c1cccc(=O)n1C2` to `CC(NC(N)=O)C(=O)OCC(=O)c1ccc(-c2ccccc2)cc1` (stereo not drawn), the “hERG current change (%, negative = inhibition) at 10uM” value rises from -10.9% to 10.8%.
